According to PubChem BioAssay AID463173 (ICCB-Longwood Screening Facility, Harvard Medical School, 2010):
Screen size: about 52,000 compounds; about 1,700 (3.3%) were called active. No stated cut-off is given here; in the data, active means survival mostly below about 52% (no sharp cut-off); inactive means mostly above about 56%. This is one part of the list.

These molecules were tested on Wild type (assay: growth inhibition of S. aureus wild type versus tarO mutant, primary screen, teichoic acid synthesis inhibitors, RN4220, OD600 (AID 463173)). Details: S. aureus RN4220 wild type/DeltatarO growth, OD600, 18 h, active compounds read low, screened at 18.75 µg/mL (by protocol).

| Structure (SMILES) | survival |
| --- | --- |
| CCc1ccc(NS(=O)(=O)c2ccc3[nH]cc(C(=O)NCCCOC(C)C)c(=O)c3c2)cc1 | inactive: 85% |
| Cc1ccc(Cl)cc1N1CCN(S(=O)(=O)c2ccc3c(c2)CCN3C(=O)C2CCC2)CC1 | inactive: 89% |
| CCCSc1nc2c([nH]c3ccccc32)c(=O)n1C | inactive: 87% |
| O=C(NCc1cccnc1)c1nn(-c2ccc(F)cc2)nc1CO | inactive: 119% |
| N=c1c2c(-c3ccccc3)c(-c3ccccc3)n(Cc3ccco3)c2ncn1CCO | inactive: 106% |
| CC(C)c1nc2ccc(C(=O)Nc3ccccc3F)cc2o1 | inactive: 72% |
| Cc1cc(NC(=O)c2cccc(F)c2)ccc1NC(=O)c1ccco1 | inactive: 114% |
| Cn1cnnc1SCc1nc2ccccc2[nH]1 | inactive: 92% |
| O=C(Nc1ccccc1Cl)c1sc2cccc(Cl)c2c1Cl | inactive: 72% |
| COc1ccc(NC(=O)c2oc3ccccc3c2NC(=O)COc2ccc(C(C)C)cc2)c(OC)c1 | inactive: 89% |
| CN1C(C(=O)Nc2ccc(OC(F)(F)F)cc2)=CC(c2cccs2)=NS1(=O)=O | inactive: 38% |
| CCSc1nc2n(n1)C(c1ccc(C(=O)O)cc1)C(C(=O)Nc1ccccc1C)=C(C)N2 (stereo unspecified) | inactive: 77% |
| Nc1nc(=S)[nH]c2c1C1(CCCC1)Cc1ccccc1-2 | inactive: 126% |
| Cc1ccc(N(CC(=O)Nc2ccc(Cl)cc2)S(=O)(=O)c2cccc3nonc23)cc1 | inactive: 125% |
| CCOc1cc(CNC(=O)CN2CCSc3ccccc32)cc(OCC)c1OCC | inactive: 87% |
| COc1cccc(NC(=O)Cn2c(=O)n(Cc3ccccc3)c(=O)c3ccccc32)c1 | inactive: 108% |
| CN(C)c1ccc(CNC(=O)Cn2c(=O)oc3cc(S(=O)(=O)N4CCCCCC4)ccc32)cc1 | inactive: 83% |
| Cc1ccc(NC(=O)Cc2coc3ccc(C(C)C)cc23)cc1Cl | inactive: 53% |
| COc1ccc(-c2nc3c(c(SCC(=O)N4CCCCC4)n2)Cc2cc(Cl)ccc2O3)cc1 | inactive: 90% |
| Cc1[nH]c(=O)[nH]c(=O)c1/C=N\NC(=O)c1cc2ccccc2o1 | inactive: 111% |
| CCOC(=O)c1c(NC(=O)c2ccc(OC)cc2)sc2c1CCCCC2 | active: 7% |
| O=C(COc1ccccc1)Nc1ccc2nc(SCC(=O)N3CCOCC3)sc2c1 | inactive: 76% |
| CCCS(=O)(=O)c1nc(S(=O)(=O)c2ccc(C)cc2)c(NC)s1 | inactive: 87% |

| Structure (SMILES) | survival |
| --- | --- |
| COc1ccc(-n2c(=O)[nH]c3cc(C(=O)NCCc4ccccc4)ccc3c2=O)cc1OC | inactive: 76% |
| Cc1ccc(-n2ncc(C(=O)N3CCCCC3)c2C2CCN(C(=O)OC(C)(C)C)CC2)c(C)c1 | inactive: 75% |
| COc1cc(OC)c(NS(=O)(=O)c2ccc3oc(=O)c4ncn(C)c4c3c2)cc1Cl | inactive: 133% |
| Cc1ccc(CSc2nnc3[nH]c(=O)cc(-c4ccccc4)n23)cc1 | inactive: 74% |
| O=C(CSc1nnc(-c2ccc(F)cc2)o1)N1CCCc2ccccc21 | inactive: 66% |
| COc1ccccc1NC(=O)N1CCN(Cc2ccccc2)CC1 | inactive: 102% |
| COC(=O)c1sccc1S(=O)(=O)N(CC(=O)NCc1ccc(C)cc1)c1ccc(C)cc1 | inactive: 75% |
| COc1ccc(-n2c(SCC(=O)NCc3ccc(C)cc3)nc3n[nH]c(C)c3c2=N)cc1 | inactive: 76% |
| COc1ccc(OC)c(N=c2oc3cc(O)ccc3cc2C(=O)Nc2ccccn2)c1 | inactive: 120% |
| Fc1ccc(-c2nc(Nc3cccc(C(F)(F)F)c3)nc3c2COc2ccccc2-3)cc1 | inactive: 56% |
| O=C(CCC1N=C2c3ccccc3N=C(SCc3ccc(Cl)cc3)N2C1=O)N1CCN(c2ccccc2)CC1 (stereo unspecified) | inactive: 99% |
| COc1ccc(N2CCN(CCCNC(=O)Nc3ccccc3)CC2)cc1 | inactive: 73% |
| COc1ccc(C2C=C(c3ccc(Cl)c(Cl)c3)Nc3ncnn32)cc1 (stereo unspecified) | inactive: 26% |
| C/C(=N/NC(=O)CC1N=C(Cc2ccccc2)NNC1=O)c1ccco1 (stereo unspecified) | inactive: 86% |
| Cc1ccc(S(=O)(=O)N2C(=O)CCC2C(=O)NCc2ccco2)cc1 (stereo unspecified) | inactive: 105% |
| O=C(Nc1ccccc1)C(Cc1cccs1)c1nn[nH]n1 (stereo unspecified) | inactive: 103% |
| CC(C)(C)c1ccc(OCc2nnc(-c3ccccc3)o2)cc1 | inactive: 84% |
| CCOC(=O)C1=C(CN2CCN(c3cccc(Cl)c3)CC2)NC(=O)NC1c1ccc(Cl)cc1 (stereo unspecified) | inactive: 85% |
| CCn1cc(C(=O)NCc2ccc(Cl)cc2)c(=O)c2cc(S(=O)(=O)N(C)C3CCCCC3)ccc21 | inactive: 81% |
| COc1ccc(S(=O)(=O)NCCSc2nnnn2-c2ccccc2)cc1 | inactive: 91% |
| COc1ccc(NC(=O)CCCn2nc(C)c3sc4ccccc4c3c2=O)cc1 | inactive: 90% |
| CCN1CCN(C(=O)c2cccs2)CC1 | inactive: 101% |
| Cc1cc(-n2c(C)nc3ccccc3c2=O)ccc1NC(=O)C(F)(F)F | inactive: 69% |

| Structure (SMILES) | survival |
| --- | --- |
| Fc1ccc(C2=CC(c3ccc(F)cc3)n3c(nc4ccccc43)N2)cc1 (stereo unspecified) | inactive: 112% |
| O=C(Cn1ncc2c3ccccc3n(Cc3ccc(F)cc3)c2c1=O)NCc1cccs1 | inactive: 85% |
| CC(CNC(=O)c1ccc2nc(Cc3ccccc3)oc2c1)c1ccccc1 (stereo unspecified) | inactive: 79% |
| COc1ccc(-c2nc(CSCC(=O)N3CCN(c4ccc(F)cc4)CC3)c(C)o2)cc1 | inactive: 71% |
| O=C1Nc2ccccc2C(=O)N2CCCC12 (stereo unspecified) | inactive: 110% |
| CCN(Cc1ccccc1)S(=O)(=O)c1ccc(-c2coc(C)n2)cc1 | inactive: 125% |
| CC1CCCN(S(=O)(=O)c2ccc3c(c2)CCN3C(=O)CCC(=O)O)C1 (stereo unspecified) | inactive: 80% |
| CCC(=O)N(Cc1cccnc1)Cc1cc2cc(OC)ccc2[nH]c1=O | inactive: 104% |
| CCC(C)Nc1ncnc2c1cnn2-c1ccc(F)cc1 (stereo unspecified) | inactive: 71% |
| Cc1cccc(Cc2c(C)nc3c(-c4ccccc4)c(C)[nH]n3c2=O)c1 | active: 4% |
| O=C(NCCc1ccncc1)Nc1c[nH]c2ccccc2c1=O | inactive: 99% |
| COc1ccc(NS(=O)(=O)c2ccc3nc(-c4ccccc4)[nH]c3c2)cc1 | inactive: 81% |
| Cc1cc(C(=O)Nc2ccc(-n3c(C)nc4ccccc4c3=O)cc2)ccc1[N+](=O)[O-] | inactive: 129% |
| CCc1ccc(-n2c(=O)c3c4c(sc3n(CC(=O)N3CCC(C)CC3)c2=O)CCC4)cc1 | inactive: 81% |
| CCc1nonc1NC(=O)c1oc2ccc(Br)cc2c1C | inactive: 85% |
| Cc1ccc(Cl)cc1NC(=O)c1oc2ccc(S(=O)(=O)N3CCCCC3)cc2c1C | inactive: 91% |
| COC(=O)CN(C#N)c1nc(SC)nc(N(C)C)n1 | inactive: 101% |
| Cc1ccc(NC(=O)C2CCCN(S(=O)(=O)c3cccc4cccnc34)C2)cc1 (stereo unspecified) | inactive: 119% |
| Cc1ccc(S(=O)(=O)c2cn(Cc3cccc(C)c3)c3cc4c(cc3c2=O)OCO4)cc1 | inactive: 144% |
| Cc1ccc(Cl)cc1NC(=O)c1oc2ccc(S(=O)(=O)N(C)C3CCCCC3)cc2c1C | inactive: 85% |
| Cc1nn(C(C)C(=O)N2CCN(c3ccc(Cl)cc3)CC2)c(=O)c2cc3occc3n12 (stereo unspecified) | inactive: 81% |
| COc1ccc(CNCCNC(=O)c2cccs2)c(OC)c1OC | inactive: 108% |
| Cc1cccc(NC(=S)N2CCC(NC(=O)c3ccco3)CC2)c1 | inactive: 97% |

| Structure (SMILES) | survival |
| --- | --- |
| CC(=O)CSc1nnc2cc(C)c3cc(C)cc(C)c3n12 | inactive: 116% |
| CSc1ccc(/C=C/c2nc3ccccc3n2S(=O)(=O)c2cccc(Cl)c2)cc1 | inactive: 66% |
| O=C1CSC(=S)N1Nc1ccccc1 | inactive: 106% |
| CCC(CC)C(=O)Nc1nnc(SCc2cc(=O)n3cccc(C)c3n2)s1 | inactive: 87% |
| CCOc1ccc(CN(C(=O)c2cc(=O)c3cc(C)cc(C)c3o2)C2CCS(=O)(=O)C2)cc1 (stereo unspecified) | inactive: 84% |
| COc1cc(NC(=O)CCc2c(C)nc3cc(-c4ccccc4)nn3c2C)cc(OC)c1OC | inactive: 79% |
| Cc1ccc2c(c1)c(=O)c(C(=O)c1ccc3c(c1)OCO3)cn2Cc1ccc(Cl)cc1 | inactive: 69% |
| CCOc1ccc(CN2C(=O)c3ccccc3Sc3ccc(C(=O)O)cc32)cc1 | inactive: 68% |
| O=C(NCCc1ccc(Cl)cc1)C(=O)NCC(c1ccco1)S(=O)(=O)c1ccc(Cl)cc1 (stereo unspecified) | inactive: 78% |
| CCCN1C(=O)C2(c3ccccc31)c1c(oc3ccc(F)cc3c1=O)C(=O)N2CCCOC(C)C (stereo unspecified) | inactive: 102% |
| Cc1oc2ncnc(N3CCCCC3)c2c1C(=O)N1CCN(c2cccc(Cl)c2)CC1 | inactive: 87% |
| Oc1ccc(CNc2ccccc2Cl)c2cccnc12 | inactive: 93% |
| c1coc(-c2nc3n(n2)C2(CCCCC2)[C@@H]2CCCC[C@@H]2N3)c1 | inactive: 99% |
| CC(C)(C)n1nnnc1C(c1cccs1)N1CCCc2ccccc21 (stereo unspecified) | inactive: 120% |
| CN(C(=O)CSc1nnc(-c2ccccc2F)o1)C1CCCCC1 | inactive: 76% |
| Cc1cccc(C(=O)Nc2nnc(S(=O)(=O)N(C)c3ccccc3C)s2)c1 | inactive: 37% |
| Cc1ccc(-n2c(-c3ccco3)nc3c(cnn3-c3ccccc3Cl)c2=O)cc1 | inactive: 131% |
| COc1ccc(CNC(=O)CCCn2nc(C)c3c(C)n(-c4ccccc4)nc3c2=O)cc1 | inactive: 70% |
| COc1ccc(OC)c(NS(=O)(=O)c2ccc(-c3cc(C)no3)s2)c1 | inactive: 72% |
| CCN(C(=O)CSc1nc(-c2ccc(C(C)C)cc2)no1)c1cccc(C)c1 | inactive: 72% |
| CCc1ccc(CN2CCc3nc(N4CCN(CC)CC4)ncc3C2)cc1 | inactive: 81% |
| CN(C)c1ccc(CNC(=O)CCn2cccn2)cc1 | inactive: 66% |
